Reference: patent publication US11730723B2, “Compounds and methods for treating viral infections” (priority 2020, dated 2023)

Tested on: dengue virus (DENV) serotype 2 strain D2Y98P
Assay: Dengue virus D2Y98P inhibition assay in Vero cells (immunostaining)
Details: read-out: D2Y98P IC50
Protocol: The antiviral activity of Compound 1 against two dengue virus (DENV) serotype 2 strains (D2Y98P and D2S221) was measured by the concentration of Compound 1 that inhibits 50% virus infectivity (IC50) for each strain.
A cytopathic (CPE)-based inhibition assay was conducted in Vero cells. Eight three-fold serial dilutions of test items in triplicate was evaluated against D2Y98P and D2S221.
The cells were fixed with ethanol/methanol for 30 minutes at −20° C., then the cells were washed 3× with DPBS before to remove the alcohol solution and cells were blocked by addition of 5% dry nonfat milk prepared in 1×DPBS (blocking buffer) for 30 minutes. Blocking buffer was removed from wells and 100 μL of the diluted primary antibody, 4G2 (1:2,000 in blocking buffer) was added to each well for two hours incubation at room temperature. Plates were washed three times with 1×DPBS. The secondary antibody, Goat Anti-Mouse IgG (H+L)-HRP Conjugate, was diluted 1:2,000 in blocking buffer and 100p L was added to each well for 1-hour incubation at room temperature. The secondary antibody was removed, and the plates were washed three times with 1×DPBS. TrueBlue peroxidase substrate (150 μL/well) was added for approximately 10 minutes (until plaques are visualized). The Bioreader 6000-Vα was used to count plaques.
Data were imported into Excel to calculate the ID50 values. The XLfit 5 plug-in was used with fit #205 (Levenberg-Marquardt algorithm) setting virus-only as 0% efficacy.

Compound	IC50
CCN(CC)CCCC(C)Nc1ccnc2cc(Cl)ccc12 (stereo not shown) [Chloroquine diphosphate]	11.7 µM
CC(C)C[C@](C)(N)COc1ccc(-c2ccnc(C(F)F)c2)nc1C(F)F [Compound 1, (S)-1-((2′,6-bis(difluoromethyl)-[2,4′-bipyridin]-5-yl)oxy)-2,4-dimethylpentan-2-amine]	7.09 µM
NC(=O)c1ncn([C@@H]2O[C@H](CO)[C@@H](O)[C@H]2O)n1 [Ribavirin]	120 µM
CCN(CC)CCNC(=O)c1c(C)[nH]c(/C=C2\C(=O)Nc3ccc(F)cc32)c1C [Sunitinib]	5.65 µM
